110 sequences from the supplement of paper PMC4166925 can be followed below.

± gives the standard deviation of the averaged measurements. The full ranking holds about 33,000 sequences; the median of “E-score (dimensionless, -0.5 to 0.5)” is about -0.046, and the highest 2% start at about 0.36. The list shows a part of the results.
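Note: protein at 200 nM in PBS on universal double-stranded arrays.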

The test system of the assay is T1, SpTbr T-box DNA-binding domain (GST fusion).
T1 sequence: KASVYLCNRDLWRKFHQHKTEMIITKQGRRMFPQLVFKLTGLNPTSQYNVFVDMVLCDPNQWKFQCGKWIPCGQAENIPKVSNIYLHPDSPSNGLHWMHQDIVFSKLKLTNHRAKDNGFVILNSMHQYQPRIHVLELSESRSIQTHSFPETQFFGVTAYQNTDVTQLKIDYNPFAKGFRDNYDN
Briefly: PBM E-score of 8-mer (E-score (dimensionless, -0.5 to 0.5)); Tbr is Tbrain of the sea star Patiria miniata (Pm) or the sea urchin Strongylocentrotus purpuratus (Sp); higher = stronger binding preference; most listed sequences are background and not binding sites. The note with it: the construct has about 5 more residues each side. On the procedure:
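Universal protein-binding microarray (Agilent AMADID 016060, 60-bp probes with a 35-bp variable region) incubated with 200 nM GST-fused Strongylocentrotus purpuratus Tbr T-box DNA-binding domain (residues 362-554) in PBS pH 7.5. Scored for every ungapped 8-mer (given with its reverse complement) as E-score (range -0.5 to 0.5; >0.45 counts as bound) and Z-score of median probe intensity. Two replicate arrays (datasets 1 and 2).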
Take ACACGTGC: the “PBM E-score of 8-mer” value was 0.3851 ± 0.0015. Take ACGGGAGC: the “PBM E-score of 8-mer” value is -0.113 ± 0.013.

Regarding CACAGCAG, the “PBM E-score of 8-mer” value was -0.0256 ± 0.044.

With CCAGATGA, the “PBM E-score of 8-mer” value is -0.34398 ± 4.9e-05. With TAGGTCCA, the “PBM E-score of 8-mer” value is -0.152 ± 0.011. Take TATCTTAA: the “PBM E-score of 8-mer” value was -0.137 ± 0.032. ATTATCAC: the “PBM E-score of 8-mer” value stood at 0.29 ± 0.043. The same measure for AATACGTA: -0.163 ± 0.082; for CATGAACG: -0.106 ± 0.015; for AGTCTCAC: 0.313 ± 0.0076. The same measure for GGGGGCGA: -0.0505 ± 0.016. Turning to CTGCGTAC, the “PBM E-score of 8-mer” value was -0.12 ± 0.058. As to CCCAAGCC, the “PBM E-score of 8-mer” value is -0.2601 ± 0.00047. AATCGATT: the “PBM E-score of 8-mer” value is -0.216 ± 0.034. To CAGCCACA belongs 0.123 ± 0.04. To CTGGCACC belongs 0.367 ± 0.018. Regarding GTGTGTAA, the “PBM E-score of 8-mer” value is 0.27 ± 0.0036. To AGAACCAC belongs -0.12 ± 0.029; to ACGATCGT, -0.175 ± 0.055; to CCTCTTGA, -0.071 ± 0.021. To GGCCTGTA belongs -0.303 ± 0.0034; to GTGGGGAA, 0.262 ± 0.0045.

Regarding AAGGCCAT, the “PBM E-score of 8-mer” value is -0.155 ± 0.0045. For CTGCGCAC, the “PBM E-score of 8-mer” value was 0.172 ± 0.038. In the case of GGTGTTAA, the “PBM E-score of 8-mer” value came out at 0.472 ± 0.0062. For GCCGGTCA, the “PBM E-score of 8-mer” value came out at 0.175 ± 0.014. To GCGAAACA belongs 0.151 ± 0.0083; to ACCATTGC, -0.12 ± 0.034; to CGAGTTAC, -0.0204 ± 0.029. The same measure for CTCAATTC: -0.116 ± 0.14; for CTCACGAG: 0.119 ± 0.028. To AGAGGTTC belongs -0.172 ± 0.065; to ATCATGCA, -0.259 ± 0.0071; to GGACGAAC, -0.112 ± 0.075. For CCGAATAC, the “PBM E-score of 8-mer” value was -0.0835 ± 0.018.

AAATAATG: the “PBM E-score of 8-mer” value is -0.0772 ± 0.12. The same measure for GCTAAGCA: -0.0675 ± 0.058.

As for CGTTGTAA, the “PBM E-score of 8-mer” value is -0.0727 ± 0.022. The same measure for ACCCTGGC: 0.154 ± 0.072; for GTAAGATA: -0.165 ± 0.06. For ATATGGTA, the “PBM E-score of 8-mer” value was -0.124 ± 0.02. As for AACGTAGT, the “PBM E-score of 8-mer” value was -0.231 ± 0.047. The same measure for CACATTGA: 0.129 ± 0.02. The same measure for GATCACAA: 0.251 ± 0.0097; for ATATACAA: -0.19 ± 0.052. The same measure for TATCAAAA: -0.21 ± 0.061; for ACTACATC: -0.0297 ± 0.028. As to CTCGTCAC, the “PBM E-score of 8-mer” value came out at 0.389 ± 0.024. The same measure for CAACTTTA: 0.0802 ± 0.025; for GAAACGGC: -0.101 ± 0.093; for CCAAGCAC: -0.109 ± 0.025.

Regarding GCCCGAGA, the “PBM E-score of 8-mer” value stood at 0.0371 ± 0.0059. To CGAGTTAG belongs -0.115 ± 0.019; to GACAGGGA, -0.0423 ± 0.006; to AAAGCGTT, 0.0855 ± 0.062. To CCCGTAGG belongs -0.126 ± 0.049; to CTACACAA, -0.056 ± 0.022; to GGCACCCA, 0.173 ± 0.021. The same measure for ATAGCCGG: -0.203 ± 0.015. In the case of CCTCCATA, the “PBM E-score of 8-mer” value was -0.14 ± 0.024. The same measure for CGCTCCCA: -0.0368 ± 0.018. The same measure for CCTAACTA: -0.0103 ± 0.095; for GTTTGTAA: 0.0475 ± 0.044. With CCCAGATC, the “PBM E-score of 8-mer” value is 0.0162 ± 0.031. To ACATTCTG belongs 0.0898 ± 0.021.

As for CAAGAGTC, the “PBM E-score of 8-mer” value was -0.191 ± 0.037.

GCATAACC: the “PBM E-score of 8-mer” value is -0.118 ± 0.015. The same measure for ATACCCGG: 0.00351 ± 0.046; for ATGGAAAC: -0.1 ± 0.021. To CACTGGGG belongs -0.212 ± 0.047; to CAGACAAA, -0.0589 ± 0.033.

Take GCGTCGTA: the “PBM E-score of 8-mer” value is -0.193 ± 0.052. To CCTGCAGA belongs -0.106 ± 0.024; to AACCGCCC, -0.139 ± 0.045; to CACAATGC, 0.00438 ± 0.0047. Regarding GAAAGCAC, the “PBM E-score of 8-mer” value was 0.0217 ± 0.045. To ATGAATCG belongs -0.00836 ± 0.055. With GCAGTGGA, the “PBM E-score of 8-mer” value was -0.261 ± 0.065. To ACACTTAG belongs 0.383 ± 0.038; to AGCGGGAC, 0.00749 ± 0.035; to GATTACGA, 0.0882 ± 0.03.

Turning to GACTGCCC, the “PBM E-score of 8-mer” value was -0.173 ± 0.018. The same measure for GATGGAGC: 0.0377 ± 0.037.

Turning to AAGGCTAA, the “PBM E-score of 8-mer” value was -0.0496 ± 0.001. In the case of AGTTCTTC, the “PBM E-score of 8-mer” value was -0.245 ± 0.0077. For the sequence ACTACACG, the “PBM E-score of 8-mer” value came to 0.115 ± 0.024. The same measure for ATCTTTTG: -0.329 ± 0.14; for CGCTTCAA: 0.0845 ± 0.028; for CCTTTCGA: -0.0209 ± 0.0015. To GCGCTTTA belongs -0.0891 ± 0.051.

CACGGCTA: the “PBM E-score of 8-mer” value was determined as 0.0881 ± 0.051. CTATGACC: the “PBM E-score of 8-mer” value was -0.147 ± 0.085. To TCGGACCA belongs -0.186 ± 0.062; to AACTATCG, 0.0225 ± 0.067; to GCGAGATA, 0.105 ± 0.0039.

For the sequence ACGAGAGC, the “PBM E-score of 8-mer” value came to 0.0323 ± 0.003. To ACTAGCTA belongs -0.0165 ± 0.021; to AGGGCTAA, -0.078 ± 0.017; to AGTTACTA, -0.194 ± 0.0084. Regarding CGATCAAG, the “PBM E-score of 8-mer” value worked out at 0.103 ± 0.018. The same measure for GACTAGGA: -0.106 ± 0.097. In the case of CTGGCCTA, the “PBM E-score of 8-mer” value is -0.185 ± 0.024.

Consider GAGCAACA, for which the “PBM E-score of 8-mer” value came to 0.216 ± 0.05. To CGGCGAGC belongs -0.222 ± 0.14; to GCGATAAA, 0.171 ± 0.082. Regarding ACTGGGAG, the “PBM E-score of 8-mer” value is -0.109 ± 0.022. For CGAAGACA, the “PBM E-score of 8-mer” value was 0.185 ± 0.0088. The same measure for AGGCACTG: -0.215 ± 0.027; for CCTGCAAG: 0.03 ± 0.041; for TGACGGAA: 0.0973 ± 0.045.
